Measurements taken from PubChem BioAssay AID1508624 (National Center for Advancing Translational Sciences (NCATS), 2021).
The whole screen tested about 48,000 compounds, of which about 120 (0.25%) were called active. About 4% were inconclusive and are not listed. Calls come from the whole dose curve; as a rule, active = well fitted activation curve with a large enough effect; inconclusive = small, poorly fitted or top-dose-only effect, or another doubt; inactive = no such curve, though single readings can be large or run the other way. Some of the results follow.

Assay: Primary qHTS for Identification of Small Molecule Activators of Huntingtin-Antisense Promoter Activity; note: nearly all actives have a fitted effect of over 55% in size
Details: HEK293 HTT-AS promoter firefly luciferase reporter, 24 h; series mostly up to 57.5 µM; activity change, positive = activation: at the top concentration
In short: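 Luminescence was read after Dual-Glo reagent and a 10 min room-temperature incubation. Values were normalized to vehicle (0% activity) and zero RLU (-100% activity). Reporter HEK293 cells had been exposed to compounds (up to 57.5 uM final) for 24 h.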

Activity change, positive = activation, inactive:
Cc1ccc(CCNC(=O)C2CC(=O)N(CCc3ccccc3)C2)cc1 (stereo unspecified) 1.59%, Cc1ccc(C(=O)Nc2cccc(C(F)(F)F)c2)cc1Nc1nc(-c2cccnc2)nc2c1cnn2C -24.4%, CCc1nn(CCCC(=O)N2CCN(c3ccc(OC)cc3)CC2)c(=O)c2cc3occc3n12 -23%, COc1ccc(CCNC(=O)c2ccc3c(c2)c(C)c(C)n3Cc2ccccc2)c(OC)c1OC -26.5%, CC1(C)O[C@@H]2C[C@@H]3[C@H]4C[C@@H](F)C5=CC(=O)C=C[C@]5(C)[C@@]4(F)[C@@H](O)C[C@]3(C)[C@]2(C(=O)CO)O1 -13.2%, CCOc1ccc(NC(=O)CN2CCN(C3CCCCC3)C(=O)C2=O)cc1 -17.1%, Cc1ccc(-c2cc(-c3coc4ccccc4c3=O)c3c(n2)-c2ccccc2OC3)cc1 1.62%, Cc1c(-c2cccc(NC(=O)Nc3ccccc3)c2)nc2ncccn12 3.22%, Cc1ccc(S(=O)(=O)N2CCc3cc(C(=O)NCCc4ccccc4)ccc32)cc1 -7.3%, Cc1cc(-c2ccc(S(=O)(=O)NCc3ccccc3Cl)s2)on1 -37.6%, CCS(=O)(=O)N1CCC2(CC1)OC(=O)C(C)=C2C(=O)NCc1ccccc1C -3.6%, COc1cccc(Cn2c(=O)cc(C)c3c(C)nn(-c4ccc(C)cc4)c32)c1 -23.1%, COc1cccc(CNC(=O)CCn2c(=O)c3cccn3c3cccnc32)c1OC -5.32%, CCOC(=O)c1ccccc1NC(=O)c1ccc2c(Cl)c3c(nc2c1)CCC3 15.5%, CCOc1ccc(CNC(=O)C2CCN(S(=O)(=O)c3ccc4c(ccn4C)c3)CC2)cc1 -24.8%, Cc1nn(CC(=O)NCC(C)c2ccccc2)c(=O)c2cc3ccccc3n12 (stereo unspecified) -11.4%, Cc1ccc(-c2noc(-c3ccc(N4CCCCC4C)c([N+](=O)[O-])c3)n2)cc1 (stereo unspecified) -32.4%, CCCCn1c(=O)c2oc3ccccc3c2n(Cc2cccc(C)c2)c1=O -7.19%, Cc1c(C(=O)Nc2ccc(-c3nc4cc(Cl)ccc4o3)cc2)oc2ccccc12 -6.7%, Cc1ccccc1NC(=O)CSc1cn(CC(=O)N2CCCC2)c2ccccc12 -10%, COc1ccc(N(C)C(=O)c2nc(-c3cccc(F)c3)n3c2CCCCC3)c(OC)c1 -5.95%, CCC12CN3CC(C)(CN(C1)C3c1c[nH]c3ccccc13)C2=O (stereo unspecified) 4.37%, CC1=C(C(=O)Nc2ccc(C)cc2C)C(c2ccc(O)cc2)n2nnnc2N1 (stereo unspecified) -25.4%, COc1ccc(/C=C\c2onc(C)c2S(=O)(=O)N2CCC(C(=O)Nc3ccc(C)cc3C)CC2)cc1 -4.36%, CCc1ccc(NC(=O)CSC2=Nc3ccccc3C3=NC(CCC(=O)NCCc4ccccc4)C(=O)N23)cc1 (stereo unspecified) -48.1%, O=C(Nc1ccc(F)cc1Cl)n1ncc2cc(Cl)ccc21 0%, CCC(=O)N1CCc2cc(S(=O)(=O)NC(CC(C)C)C(=O)Nc3cc(C)ccc3OC)ccc21 (stereo unspecified) -3.05%, CCCOc1ccc(C(=O)Nc2cccc(NC(=O)c3cccc(Cl)c3)c2)cc1 15.2%, CCS(=O)(=O)c1ncc(N(Cc2ccco2)Cc2sccc2C)c(C(=O)Nc2ccc(C)cc2C)n1 -16.3%, CCCCc1nn2c(=O)cc(COC(=O)c3cccc(OC)c3)nc2s1 -4.02%, COc1ccccc1N(CC(=O)NCCSCc1ccccc1)S(C)(=O)=O -8.74%, COc1ccc(-c2cc(C(F)(F)F)nc(SCC(=O)NCc3ccc(OC)c(OC)c3)n2)cc1 -8.69%, CCc1nnc2c(Nc3cccc(C(C)=O)c3)nc3ccccc3n12 3.73%, CCOc1ccc(C(=O)NCc2ccc3c(c2)CCN3C(=O)c2ccccc2)cc1 -23.7%, COc1ccc(-c2onc(C)c2C)cc1S(=O)(=O)NCc1ccco1 -15.5%, COc1cccc(C(=O)Nc2cccc(OCc3cc(=O)n4cc(C)ccc4n3)c2)c1 0.218%, CCc1ccc(CNC(=O)c2ccc3c(c2)nc2n3CCC(C)C2)cc1 (stereo unspecified) 9.34%, COc1ccc(C)cc1NC(=O)CN(c1ccccc1)S(=O)(=O)N(C)C 2.96%, CCCCc1nn2c(=O)cc(COC(=O)COc3ccc(C)cc3)nc2s1 14.2%, CCOC(=O)CN1C(=O)c2ccccc2Sc2ncccc21 -10.8%, COc1ccc(NC(=O)CN2C(=O)COc3ccc(S(=O)(=O)Nc4ccccc4)cc32)cc1 -13.8%, CCOC(=O)Oc1ccc(CCNC(=O)[C@H](CCSC)NC(C)=O)cc1OC(=O)OCC -1.61%, COc1ccc(C(=O)NCC(c2ccc(N(C)C)cc2)N2CCCC2)c(OC)c1 (stereo unspecified) -10.2%, Cc1cccc(-c2nc(CSc3nncn4c3cc3oc(C)cc34)c(C)o2)c1 -7.1%, COc1ccccc1OCC(=O)Nc1nc2c(s1)CC(C)CC2 (stereo unspecified) -6.69%, CCSc1ncc(Cl)c(C(=O)Nc2c(C(=O)Nc3cccc(C)c3)oc3ccccc23)n1 -2.33%, Cc1ccc2nc(-c3ccc(Cl)cc3)cc(C(=O)OCC(=O)c3ccccc3)c2c1 -18.3%, COc1ccc(NC(=O)c2sc3nc4c(cc3c2N)CN(Cc2ccccc2)CC4)cc1 -1.25%, CCc1ccc(C2Sc3ccccc3NC3=C2C(=O)c2ccccc23)cc1 (stereo unspecified) -0.692%, COc1ccc(C(=O)NCCc2sc(-c3ccc(F)cc3)nc2C)cc1OC -9.97%, CC1CCC(NC(=O)C2(C)Cc3ccccc3C(=O)N2Cc2ccc(F)cc2)CC1 (stereo unspecified) -9.81%, CCC(C(=O)NC1CCCCC1)n1c(SCc2ccc(F)cc2)nc2ccncc21 (stereo unspecified) -17.8%, CCC(Cn1nnc2ccccc2c1=O)NC(=O)Nc1ccc(C)cc1C (stereo unspecified) -15.2%, CC(=O)c1cccc(Nc2ccc3cc(S(=O)(=O)N4CCC(C)CC4)ccc3n2)c1 -37.4%, O=C(COc1ccccc1-c1nnc(-c2ccccc2)o1)Nc1ccc(Br)cc1F -17.1%, CCCNC(=O)CCNS(=O)(=O)c1ccc2c(c1)c(=O)n(C)c(=O)n2C -2.27%, CC(=O)c1ccc(NS(=O)(=O)c2cc(-c3cc(C)no3)ccc2C)cc1 -38.1%, CCC(=O)N1CCc2cc(S(=O)(=O)NCCC(=O)Nc3ccc(C)cc3)ccc21 10.4%, CC(C)c1ccc(-c2nnc3n(CCc4ccccc4)c(=O)c4ccccc4n23)cc1 -58.3%, Cc1cccc(NCc2nc3ccccc3n2CCOc2ccccc2C)c1 -5.62%, COc1cc(OC)c(NC(=O)CCn2cnc3onc(-c4ccc(F)cc4)c3c2=O)cc1Cl -26.4%, CCOc1ccc(NC(=O)N(Cc2c[nH]c3ccccc23)C2CCCCC2)cc1 27.4%, Cc1oc(-c2cccc(Cl)c2)nc1CN1CCC(C(=O)NCCCN2CCN(c3cccc(Cl)c3)CC2)CC1 -16%, Nc1cc(=O)nc(SCC(=O)Nc2ccc(F)cc2)n1-c1ccc(Cl)cc1 -13%, Cc1ccc(CNCc2c(C(=O)O)n(Cc3ccccc3C)c3cc(C)ccc23)cc1 -10.5%, CCC[C@@H]1C[C@@H](C(=O)N[C@@H]([C@H]2O[C@H](SC)[C@H](O)[C@@H](O)[C@H]2O)[C@@H](C)O)N(C)C1, CCCCNC(=O)c1[nH]c2ccccc2c1Sc1ccc(C)cc1 3.44%, CCOc1ccccc1C(=O)NCc1ccc2c(c1)CCN2C(C)=O -4.85%, Cc1ccc(C2c3[nH]c4ccccc4c3CCN2C(=O)Nc2ccc(C)c(C)c2)cc1 (stereo unspecified) -28.2%, CC(=O)c1cccc(NC(=O)c2nc(-c3ccc(C)cc3)n3c2CCCCC3)c1 -46.4%, Cc1cccc(NC(=O)C2CCCN(S(=O)(=O)c3cccc4nonc34)C2)c1 (stereo unspecified) 1.81%, O=C(NCCc1ccc(Cl)cc1)c1ccc(CSCc2ccccc2Cl)o1 -18.7%, Cc1ccc(NC(=O)C(=O)NCc2ccc(Cl)cc2)cc1 5.74%, CCOC(=O)C(C)Sc1nnc2ccc3ccccc3n12 (stereo unspecified) 23.2%, COc1ccc(C2(CNC(=O)C(=O)Nc3cccc(C(F)(F)F)c3)CCCC2)cc1OC -20.3%, COc1cc(CNCc2c(C(=O)O)c(C)n(Cc3cccc(Cl)c3)c2C)cc(OC)c1OC -13.3%, CCc1ccc2nc(N3CCC(C(=O)O)CC3)sc2c1 -75%, Cc1c(Cl)cccc1-n1c(CCC(=O)O)ccc1-c1cccs1 -8.06%, CCSc1nc2n(n1)C(c1ccc(CC)cc1)C(C(=O)Nc1ccccc1OC)=C(C)N2 (stereo unspecified) -2.88%, CCC(C(=O)N1CCN(c2cc(Cl)ccc2C)CC1)n1nc(C)n2c(cc3occc32)c1=O (stereo unspecified) -52.6%, COc1ccc(Br)cc1CNC(=O)C(C)n1nc(C)n2c(cc3occc32)c1=O (stereo unspecified) -17.3%, CCc1cccc(NC(=O)CN2C(=O)CCc3cc(S(=O)(=O)N4CCOCC4)ccc32)c1 -18.1%, Cc1ccc2oc(C(=O)Nc3nnc(CC(C)C)s3)cc(=O)c2c1 3.38% [at 11.5 µM, percent change from vehicle, -100% = no light], CN1CCCN=C1/C=C/c1cccs1 -8.24%, CCN(CC)c1cc(C)nc2nc(-c3ccc(C)cc3)nn12 -6%, Cc1ccc(CN2CCSc3ccc(C(=O)Nc4ccc(F)cc4F)cc32)cc1 23.9%, Cc1cc2c(=O)c(C(=O)c3ccncc3)cn(CC(=O)Nc3cccc(C)c3C)c2cc1C -3.73%, Cc1oc(-c2ccc(C(=O)NCc3ccc(N(C)C)cc3)cc2)nc1COc1ccccc1 -5.81%, CC(NC(=O)CN(C)S(=O)(=O)c1ccc2c(c1)c(=O)n(C)c(=O)n2C)c1ccccc1 (stereo unspecified) -14%, Cn1cc(S(=O)(=O)N2CCCCC2)cc1C(=O)N1CCN(c2ccc(F)cc2)CC1 -20.7%, Cc1cc(=O)n(CC(=O)NCCC(C)C)c2c1c(C)nn2C -7.46%, Cc1ccc2c(c1)c(=O)c(C(=O)c1ccncc1)cn2CC(=O)Nc1c(C)cccc1C -1.21%, CCc1ccc(NC(=O)CSc2nccn2C2CCCC2)cc1 -1.92%, Cc1ccc(C)c(S(=O)(=O)c2cnc(SCC(=O)Nc3ccc(F)cc3F)[nH]c2=O)c1 -3.58%, Cc1c(C(N)=O)nnn1-c1ccc(Br)cc1 0%, CCN(CC)CCNC(=O)C1CCCN(c2ncnc3onc(C)c23)C1 (stereo unspecified) -10.7%
